# This is one part of the list. At the low end of the ranking the order means little.
# Molecular target: SIX1 homeodomain (reference allele) (UniProt Q15475)
# Assay: universal protein binding microarray
# Conditions: Universal all-10-mer PBM (8x60K, AMADID 030236), 300 nM GST-tagged protein, Alexa Fluor 488 anti-GST; buffer, salt, pH and temperature not stated; high values mean tight binding; most listed sequences are background and not binding sites; double strand, one strand shown
row,Sequence,binding signal [E-score]
1,CAATGGAA,-0.035
2,GCCTCTAC,-0.00481
3,TAAATCGA,-0.238
4,ACCTTCCA,-0.197
5,CATCCGGA,0.21
6,CCAGTACA,0.147
7,CTGGTGGC,-0.111
8,CGCAGCAC,-0.223
9,AAGCCGCC,-0.184
10,TACCGATA,0.375
11,ATGTATTA,0.241
12,AGCCAGCA,-0.184
13,GTAGCGGA,0.0489
14,ACGGCAAA,-0.0597
15,CCGTATAC,0.36
16,CCTTCGAG,-0.0908
17,AATTCGCG,-0.0341
18,CTATGTAC,0.00365
19,AGCTTACT,-0.18
20,ATGGTGTC,0.435
21,AAGTATTA,0.254
22,GAACTGTA,-0.169
23,ACGAGACT,-0.0997
24,AATTCCAC,0.0293
25,CCTCGTGC,-0.117

row,Sequence,binding signal [E-score]
1,AATGGAAC,-0.092
2,AACGGTAC,0.0211
3,GAACTGCA,-0.164
4,CCATTTAA,-0.0725
5,ATCTCTAG,0.185
6,AGTATCAC,0.464
7,ACAAGTGC,-0.294
8,GGGTGTAC,0.303
9,ACTTCACG,-0.246
10,CGCCTAGA,0.112
11,ATCAAAAG,0.0854
12,AGTTGATG,-0.046
13,CCCCCCAA,-0.00617
14,ACCAGTGA,0.127
15,GAGCGACA,-0.161
16,AGAGGCCG,-0.261
17,GTCACCAC,-0.246
18,ACGCCTGC,-0.0845
19,CTAAATTA,-0.135
20,CCGTGATA,0.348
21,ACCAAGTA,0.057
22,AGGTTACG,-0.217
23,AATGTTAA,-0.168
24,AGAGAACC,-0.0686
25,ATGAAAGA,-0.158

row,Sequence,binding signal [E-score]
1,CTCGGCTA,0.026
2,CCTGGTAA,-0.177
3,ATTCGAAA,-0.204
4,CACGTTAG,-0.048
5,GCTTTGCA,-0.0866
6,CCTTTAAA,-0.0777
7,CCCTTGCA,-0.0987
8,ATCGCTAC,0.115
9,CCCCTAGA,0.137
10,ACACCAGG,0.339
11,AAATATCC,0.271
12,CCTGATTA,0.109
13,GCGATTGA,-0.146
14,CGCGAACC,-0.151
15,AGCGGACA,-0.0991
16,ACTGAAGG,-0.142
17,AACGACCC,-0.0127
18,CAGCAACA,-0.0104
19,GACTAGTA,-0.0388
20,ACCACTCG,0.14
21,CTTGTCGA,0.0441
22,GCTCATAA,0.0557
23,CAGCTCAC,0.00239
24,AAGCACTT,-0.346
25,GCCACACA,-0.161

row,Sequence,binding signal [E-score]
1,ATCGTATG,0.132
2,GTAATACA,0.14
3,TAAACTAA,0.0847
4,AATACCAA,0.278
5,CCACCATA,0.0922
6,AAGAGATC,0.338
7,GAAGAAGA,0.0245
8,GTCCCTCA,-0.121
9,CCGACTAA,-0.0298
10,ACCGGGGA,-0.0595
11,CACGCTGG,0.0173
12,CACATATG,-0.00899
13,AGGCTGTA,0.11
14,GTATCTCA,0.392
15,GGCGGTCA,-0.168
16,TCCTCAGA,0.0885
17,ACATGGTG,0.215
18,GGATGGTA,0.214
19,CGTGGGGA,0.0959
20,ACCGTTGA,0.0961
21,GTTGCACA,-0.176
22,AACCACTG,0.052
23,ATGGGGCA,0.0228
24,CTGGAGCA,-0.108
25,CATTTTCG,-0.102

row,Sequence,binding signal [E-score]
1,ATTGCTGA,-0.0798
2,AGGGTCAT,-0.0229
3,ACCTATTA,-0.0821
4,CAGGCCGC,-0.284
5,AGACTGAC,-0.0877
6,TCGCTTCA,-0.12
7,GAGGTTAC,-0.112
8,CCAACCAG,-0.0849
9,CGTTGGCA,-0.0301
10,AGTGTGCG,-0.228
11,CTTAGGGC,-0.0777
12,GACGGGGC,0.0379
13,CAGAGTGC,-0.351
14,GAAGTCTA,-0.147
15,TAACGATA,0.315
16,AGACTGGC,-0.246
17,GCTGACCC,-0.185
18,ACTTTACG,0.0199
19,CGATGGCC,-0.222
20,ATCCCTTC,0.303
21,AGTTTTCA,-0.276
22,GAACTCGA,-0.279
23,AGCAATCA,-0.153
24,AATAGACT,-0.227
25,TAGTGAAA,-0.0253

row,Sequence,binding signal [E-score]
1,CTAAGGTC,-0.264
2,CGGTGCTC,-0.0105
3,ACTTGCAA,-0.00632
4,ATCGATAC,0.446
5,GAACATGA,-0.00765
6,AGTGGGAC,-0.187
7,ATTACTCC,0.126
8,CGCGTTTA,-0.127
9,ACTATATG,0.1
10,GAGTCGGA,-0.0206
11,CTCAGTTC,-0.181
12,CACTAGAC,-0.0493
13,AAGTTAAA,-0.137
14,CAGGCCCG,-0.0995
15,CAATTATC,0.0355
16,AACGGTGT,0.253
17,CATGATAA,0.0701
18,GTATTCAC,0.147
19,CAGCGCTC,-0.242
20,ATGCCAGC,-0.0823
21,CTTAGAGA,0.0033
22,AGCCTTTC,-0.168
23,CTGGCCTA,-0.192
24,ATACATAA,0.165
25,CGGTTGTC,-0.157

row,Sequence,binding signal [E-score]
1,GTTATGCA,-0.173
2,ACCAAAGT,-0.125
3,ACCATATG,0.128
4,ACTTTTGG,-0.232
5,ACATTGGA,0.125
6,AACTTGAA,-0.0612
7,CCCAGGAG,0.076
8,CAGGCAGC,-0.173
9,GGTGAGCA,0.0318
10,AAGTGTGC,-0.0528
11,AAGACACT,0.0292
12,ACAAGGTG,0.0108
13,CAAGATGC,0.0911
14,ACGAGGCC,-0.229
15,ATTCCAAT,0.0114
16,ACTGCTGA,-0.124
17,GGAGCTTA,-0.0968
18,GCCCTGAC,-0.148
19,CTCATGGA,0.0353
20,CACCTCTC,0.00349
21,AAATCCGC,0.0214
22,GTACTGTA,-0.176
23,GGATTGCC,0.0912
24,CGGATCCG,0.417
25,AGTACCTA,-0.0422

row,Sequence,binding signal [E-score]
1,CCAGAGGA,-0.0169
2,ACTGTGTG,0.0598
3,CAAGAACC,-0.165
4,CCGCTAAC,-0.103
5,GATAAGGA,0.183
6,TAAGTGGA,-0.0381
7,TCAACGCA,-0.11
8,ACTCTCGG,-0.0476
9,AGAAGGAG,0.00823
10,AAACAGAT,0.111
11,CCTTACAC,0.119
12,ACGCATCA,0.0402
13,CAGGGGCC,-0.176
14,CATACGAA,0.00525
15,GCTCGGGA,-0.0528
16,AGTAAAGC,-0.0343
17,GCCTGACC,-0.127
18,AAAGTGTT,-0.196
19,ACCTGGGG,0.0735
20,ACCCTTTA,0.0286
21,CTTGTTAC,-0.135
22,GCTGCAGC,-0.321
23,AGAACAGC,-0.273
24,ATGATGGG,-0.094
25,CCGGGGGA,-0.0541

row,Sequence,binding signal [E-score]
1,AATAGGGG,0.217
2,ATCCGCTC,0.377
3,AAGGTGTC,0.373
4,CCCGGACA,0.061
5,CACTCTCG,-0.00186
6,GCAAACAC,-0.0449
7,AAGCTCGC,-0.211
8,CAAATACG,0.03
9,ACAACCGG,-0.171
10,AGGGAGGG,-0.0797
11,ATATGCTC,0.29
12,CGATCAAA,0.00681
13,CTCTTCTC,0.0511
14,TGAGTAAA,-0.0642
15,CTACAGAC,-0.182
16,CTTTGGGC,-0.000765
17,ATTTCATG,-0.223
18,TCCGGAAA,0.0168
19,CGACAGAA,0.153
20,AACCCCTA,0.0636
21,AGAGAGAG,-0.126
22,CCGTCCAC,-0.071
23,GATTACTA,-0.0362
24,GCATCGAA,0.116
25,ACAGGGCC,-0.236

row,Sequence,binding signal [E-score]
1,AAGATGAA,-0.0473
2,CGAATATA,0.102
3,ATAGGCTC,0.11
4,GATGAGGA,0.15
5,AACCTCAA,-0.145
6,CCCGATAA,0.139
7,ATGACCAG,-0.0983
8,GTATTCCA,0.202
9,GAAGCCCC,0.0222
10,ACAGAGTC,-0.0356
11,ACCGGACA,-0.0653
12,ATGCAAGG,-0.0597
13,CCGCTTCC,-0.101
14,AATTTTAA,-0.0573
15,ACGTACAC,0.105
16,GAGTGCCC,-0.107
17,CGTGAACC,-0.12
18,GCGCAAGC,-0.236
19,AGACACAC,-0.137
20,GCTGTACC,-0.135
21,TAGCTTAA,-0.101
22,ACAACCAG,-0.0344
23,AGTGGCAC,-0.0284
24,TCCATGAA,-0.057
25,CATAGGCG,-0.0269

row,Sequence,binding signal [E-score]
1,TAACGTTA,-0.235
2,CACGTAGG,-0.034
3,AACCAAAT,-0.118
4,AACCGAGG,-0.083
5,AGAACATA,0.152
6,ACTCGATC,0.0395
7,GCGAAGCA,-0.283
8,CAAGGAGG,0.0667
9,ATAGCTAT,0.27
10,ACCGCCCT,0.0181
11,AGCCTGAT,0.203
12,TAAAATGA,0.0255
13,GTGCGAAA,-0.297
14,AGCACAGA,0.0306
15,ATCGCAAT,0.194
16,AATGTAGA,-0.134
17,GTCCAAAA,-0.171
18,CCCATTAG,-0.267
19,CAAGTGGG,0.00481
20,GACGCATC,0.132
21,GTCTCATA,0.274
22,ATGCCCAC,-0.101
23,ACTGGATA,0.292
24,CATGCGGC,-0.213
25,CGATAATA,0.328

row,Sequence,binding signal [E-score]
1,ACCCGGTC,-0.0936
2,AGTCCAAC,-0.28
3,ACCTGCGC,-0.0146
4,CTGTCTTC,-0.351
5,ATACTGCA,0.242
6,TACACGTA,0.205
7,GCCATATA,0.215
8,AAAATCAG,-0.216
9,AGAGGAGG,0.00861
10,ATACACAG,0.289
11,ACGCCTAA,-0.153
12,CTGAGAGC,0.133
13,CAACGTGA,-0.113
14,ATACTCCG,0.359
15,ACATGTCT,-0.0505
16,TAAAGGCA,-0.317
17,TAAGTGCA,-0.101
18,ACGGTTCA,-0.117
19,ACGCCTTA,-0.00294
20,CCTCGAGC,-0.0555
21,ATGACAGC,-0.168
22,ACTAAGTG,-0.0756
23,CGGTGACC,-0.107
24,CCGGAGTC,-0.115
25,GGGCTACC,-0.172

row,Sequence,binding signal [E-score]
1,GGCGAAAC,-0.159
2,CCCGGCCG,-0.0205
3,ATGTGCCG,-0.0276
4,TACTGCGA,0.0491
5,CGCGGTAC,0.148
6,TTATGCAA,-0.00696
7,CGAGATCG,0.207
8,CCTTCGTC,-0.208
9,GATATCAC,0.476
10,TGAGAAAA,-0.139
11,AAGAAAGC,-0.312
12,GAGGTAAC,0.00647
13,ACGGGGAC,-0.0925
14,AGCTGCAC,-0.219
15,GCTATAAC,-0.038
16,TACCCTGA,0.249
17,AATACAAT,0.0941
18,GGTACCCA,-0.0424
19,AAAGAATA,0.0838
20,CGACTCAA,-0.173
21,ATGCTTTG,-0.142
22,GGCATACC,0.0187
23,CGGTCGTA,-0.114
24,CATCGCGC,-0.12
25,CATGACTC,-0.303

row,Sequence,binding signal [E-score]
1,ATTCGGAG,-0.0897
2,CAATATGC,0.0633
3,GGATTAAC,0.148
4,GTGGCGAA,-0.189
5,ATCCGCAC,0.349
6,AAATTAAG,-0.277
7,GTTACTCA,-0.0827
8,CGAGTCTC,-0.0674
9,ACCGCTAA,-0.0946
10,GAGCATAA,0.0387
11,ACCACGGA,0.0747
12,AGAACAAA,-0.0746
13,CAGGTGTA,0.272
14,CTAACTCC,-0.155
15,GGATATCC,0.467
16,CGGATCAG,0.443
17,AGAACTGG,0.00542
18,CGATGTAG,-0.156
19,AAGTTGTA,-0.0587
